The record followed here is the BET-seq Pho4 binding data (Le et al. 2018).

Some of the results follow. Values were computed here from the reads of four pooled replicates and scatter widely.

This experiment addresses T1, Pho4 (S. cerevisiae) (UniProt P07270).
T1 sequence: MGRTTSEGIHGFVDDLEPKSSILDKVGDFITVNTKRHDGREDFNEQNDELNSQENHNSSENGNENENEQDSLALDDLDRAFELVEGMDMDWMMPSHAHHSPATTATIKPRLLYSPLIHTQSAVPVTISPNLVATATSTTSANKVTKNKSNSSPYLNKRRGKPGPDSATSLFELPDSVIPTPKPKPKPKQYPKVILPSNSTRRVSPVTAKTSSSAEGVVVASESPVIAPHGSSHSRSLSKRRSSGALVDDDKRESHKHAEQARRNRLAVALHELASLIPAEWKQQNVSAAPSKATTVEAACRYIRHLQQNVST
Put plainly: relative binding free energy (BET-seq); higher = weaker binding. The note with it: reference: library average.
As to GTGTGCACGTGATTGC, the “relative binding free energy” value is -0.11 kcal/mol.

Regarding TGGAGCACGTGTTTGT, the “relative binding free energy” value was 0.02 kcal/mol.

Regarding AGGAGCACGTGTAGGT, the “relative binding free energy” value is -0.05 kcal/mol.

For AGTATCACGTGGATAA, the “relative binding free energy” value was 0.17 kcal/mol.

GGCAGCACGTGGTGGG: the “relative binding free energy” value is -0.06 kcal/mol.

On to TCATTCACGTGGGTTA, for which the “relative binding free energy” value came to 0.09 kcal/mol.

Turning to TGAAACACGTGAGTGG, the “relative binding free energy” value stood at 0.3 kcal/mol.

As to GGCGTCACGTGGGTTA, the “relative binding free energy” value came to 0.04 kcal/mol.

Take TGGTACACGTGGTCTG: the “relative binding free energy” value is -0.07 kcal/mol.

As to TGAGTCACGTGTGGAA, the “relative binding free energy” value was 0.2 kcal/mol.

For the sequence GGTCTCACGTGGTCTG, the “relative binding free energy” value amounted to 0.17 kcal/mol.

TAATGCACGTGGGGTC: the “relative binding free energy” value was -0.27 kcal/mol.

Turning to AACGTCACGTGGATTG, the “relative binding free energy” value is 0.17 kcal/mol.

TGGTCCACGTGATTAG: the “relative binding free energy” value was found to be 0.09 kcal/mol.

Consider GGAGCCACGTGGTGTG, for which the “relative binding free energy” value is -0.1 kcal/mol.

As to CGTGTCACGTGCTTTA, the “relative binding free energy” value came to 0 kcal/mol.

Take TAGAGCACGTGTAGAG: the “relative binding free energy” value is -0.1 kcal/mol.

As to TAGCTCACGTGGGATG, the “relative binding free energy” value was 0.15 kcal/mol.

On to TAGGCCACGTGAGTGG, for which the “relative binding free energy” value was determined as 0.13 kcal/mol.

Turning to TATTTCACGTGGCGGT, the “relative binding free energy” value came out at 0.29 kcal/mol.

For GTTCGCACGTGGATTA, the “relative binding free energy” value was found to be 0.2 kcal/mol.

Regarding AGGATCACGTGTTGGC, the “relative binding free energy” value was 0.25 kcal/mol.

For TGTGGCACGTGGAATT, the “relative binding free energy” value was 0.06 kcal/mol.

On to ATGGTCACGTGCGGAG, for which the “relative binding free energy” value was found to be 0.04 kcal/mol.

For the sequence GTAAGCACGTGCGGGA, the “relative binding free energy” value was -0.08 kcal/mol.

As to GGAATCACGTGATAGT, the “relative binding free energy” value is 0.22 kcal/mol.

Consider AACAGCACGTGTGTGT, for which the “relative binding free energy” value was -0.2 kcal/mol.

As to AGGAGCACGTGTTGCG, the “relative binding free energy” value was -0.06 kcal/mol.

In the case of TAAGTCACGTGGTGCA, the “relative binding free energy” value is -0.04 kcal/mol.

On to ATGGTCACGTGGTAAG, for which the “relative binding free energy” value amounted to 0.08 kcal/mol.

With CTGGTCACGTGGAGCG, the “relative binding free energy” value is 0.03 kcal/mol.

As to GTCTGCACGTGACTGG, the “relative binding free energy” value amounted to 0.36 kcal/mol.

Consider ATGTGCACGTGGTATG, for which the “relative binding free energy” value was -0.15 kcal/mol.

As for TACTGCACGTGTGATA, the “relative binding free energy” value is 0.14 kcal/mol.

For the sequence TGTGGCACGTGAATGT, the “relative binding free energy” value came out at 0.25 kcal/mol.

Regarding CATTTCACGTGTTTAT, the “relative binding free energy” value was determined as 0.14 kcal/mol.

Regarding AAAGTCACGTGGGTAT, the “relative binding free energy” value was -0.02 kcal/mol.

In the case of GATAACACGTGTTTAT, the “relative binding free energy” value worked out at 0.01 kcal/mol.

Consider TGGGGCACGTGACATT, for which the “relative binding free energy” value was 0 kcal/mol.

TGAGTCACGTGTGGCT: the “relative binding free energy” value is 0.17 kcal/mol.

Consider GTTGGCACGTGAGACG, for which the “relative binding free energy” value is 0.27 kcal/mol.

Turning to ATTGGCACGTGATGAT, the “relative binding free energy” value was -0.02 kcal/mol.

In the case of GGTTACACGTGGGAAA, the “relative binding free energy” value is 0.09 kcal/mol.

As for TTTGCCACGTGGTGGC, the “relative binding free energy” value is -0.13 kcal/mol.

As for ACTTGCACGTGGTTAA, the “relative binding free energy” value is -0.1 kcal/mol.

Take TACATCACGTGAGGTT: the “relative binding free energy” value was determined as 0.4 kcal/mol.

Consider TTTGACACGTGTGGGT, for which the “relative binding free energy” value was 0.09 kcal/mol.

In the case of TCCGTCACGTGGAGGT, the “relative binding free energy” value worked out at 0.03 kcal/mol.

ATTTGCACGTGGCGGA: the “relative binding free energy” value came out at 0.01 kcal/mol.

With GGTCTCACGTGGGCGT, the “relative binding free energy” value stood at 0.06 kcal/mol.

For GGATTCACGTGTGGAG, the “relative binding free energy” value was 0.39 kcal/mol.

Regarding CGAGGCACGTGAAGGA, the “relative binding free energy” value was 0.34 kcal/mol.

Turning to AAAAGCACGTGTGAAT, the “relative binding free energy” value was determined as 0.09 kcal/mol.

GTTATCACGTGTGTAC: the “relative binding free energy” value was 0.14 kcal/mol.

Consider GTTCTCACGTGGAATG, for which the “relative binding free energy” value came out at 0.56 kcal/mol.

On to GTGGACACGTGTTCTT, for which the “relative binding free energy” value stood at 0.08 kcal/mol.

As to GATGTCACGTGGTGAC, the “relative binding free energy” value amounted to 0.08 kcal/mol.

For the sequence GGTGACACGTGGCCGG, the “relative binding free energy” value is -0.06 kcal/mol.

As for ATGGCCACGTGGAGTT, the “relative binding free energy” value is -0.01 kcal/mol.

As to GTTAACACGTGATTTA, the “relative binding free energy” value turned out to be 0.14 kcal/mol.

On to GAAGTCACGTGGTCGG, for which the “relative binding free energy” value was -0.08 kcal/mol.

For the sequence TTAGTCACGTGTCTGG, the “relative binding free energy” value worked out at 0.15 kcal/mol.

Consider AGTGACACGTGTTAAT, for which the “relative binding free energy” value turned out to be 0.07 kcal/mol.

For the sequence GTAAGCACGTGTGCTT, the “relative binding free energy” value stood at 0.07 kcal/mol.

As to ATGGCCACGTGGTCTG, the “relative binding free energy” value was -0.13 kcal/mol.

For TTTTGCACGTGTACAG, the “relative binding free energy” value is -0.06 kcal/mol.

AGGAACACGTGAGGGA: the “relative binding free energy” value stood at 0.39 kcal/mol.

On to CTTGCCACGTGATGGG, for which the “relative binding free energy” value worked out at 0.1 kcal/mol.

In the case of TCGGACACGTGTTTTT, the “relative binding free energy” value amounted to 0.09 kcal/mol.

Take TGAACCACGTGTTTTT: the “relative binding free energy” value was 0.04 kcal/mol.

As for GGTGACACGTGTGTAA, the “relative binding free energy” value is -0.02 kcal/mol.

Take TTTCGCACGTGAGGGT: the “relative binding free energy” value is 0.05 kcal/mol.

As to TTTGACACGTGTAGCG, the “relative binding free energy” value came out at 0.12 kcal/mol.

With GGGGGCACGTGTATGG, the “relative binding free energy” value is -0.04 kcal/mol.

As to GGTGCCACGTGGAGGA, the “relative binding free energy” value was -0.05 kcal/mol.

Consider CAGTGCACGTGTGGTA, for which the “relative binding free energy” value amounted to 0.1 kcal/mol.

As for TCTCACACGTGTGTGT, the “relative binding free energy” value was determined as 0.16 kcal/mol.

Regarding ATAACCACGTGGTGGG, the “relative binding free energy” value was -0.13 kcal/mol.

As to TTTCACACGTGGTTTT, the “relative binding free energy” value amounted to 0.09 kcal/mol.

Regarding ATGATCACGTGCGGGG, the “relative binding free energy” value was determined as 0.23 kcal/mol.

Regarding GATCTCACGTGGGAGG, the “relative binding free energy” value worked out at 0.26 kcal/mol.

For the sequence TGAGCCACGTGCTGGG, the “relative binding free energy” value was -0.2 kcal/mol.

In the case of AATAGCACGTGGGTTC, the “relative binding free energy” value is -0.21 kcal/mol.

TCCGACACGTGGTGGT: the “relative binding free energy” value came out at 0.09 kcal/mol.

Turning to TGTCTCACGTGGGATT, the “relative binding free energy” value was found to be 0.03 kcal/mol.

In the case of TGCATCACGTGGTCTT, the “relative binding free energy” value amounted to 0.06 kcal/mol.

For TTAGCCACGTGTAGTT, the “relative binding free energy” value is -0.08 kcal/mol.

As for CGTGGCACGTGGGGGT, the “relative binding free energy” value is -0.21 kcal/mol.

As for AGAGGCACGTGAGAAT, the “relative binding free energy” value came to 0.15 kcal/mol.

Regarding TCAATCACGTGAGGTG, the “relative binding free energy” value worked out at 0.47 kcal/mol.

GAGGTCACGTGAGGCG: the “relative binding free energy” value is 0.33 kcal/mol.

Consider TGAATCACGTGTGGGA, for which the “relative binding free energy” value came to 0.19 kcal/mol.

For the sequence TGTATCACGTGCAGGT, the “relative binding free energy” value was found to be 0.05 kcal/mol.

In the case of AGGGCCACGTGATGGA, the “relative binding free energy” value was -0.01 kcal/mol.

For the sequence CATTGCACGTGTAGGA, the “relative binding free energy” value amounted to 0.05 kcal/mol.

In the case of GGAAACACGTGGTGGA, the “relative binding free energy” value was 0.04 kcal/mol.

Take CGTTTCACGTGGAAGG: the “relative binding free energy” value turned out to be 0.26 kcal/mol.

For AGGGTCACGTGTGCGG, the “relative binding free energy” value was 0.08 kcal/mol.

Regarding TGACGCACGTGGTGGG, the “relative binding free energy” value is -0.08 kcal/mol.

As for TCTGTCACGTGGGGTC, the “relative binding free energy” value is -0.1 kcal/mol.

TGGAGCACGTGATTTT: the “relative binding free energy” value was 0.14 kcal/mol.

In the case of ATGTTCACGTGTGTAT, the “relative binding free energy” value amounted to 0.28 kcal/mol.

Consider GTGCGCACGTGTAGGA, for which the “relative binding free energy” value is -0.03 kcal/mol.

On to ATTTTCACGTGATGGG, for which the “relative binding free energy” value is 0.3 kcal/mol.

Take GGCTTCACGTGGTACG: the “relative binding free energy” value was found to be 0.37 kcal/mol.

In the case of CGGGCCACGTGTGAGG, the “relative binding free energy” value was -0.08 kcal/mol.

For the sequence TACTGCACGTGACGTT, the “relative binding free energy” value was found to be 0.32 kcal/mol.

On to TATGACACGTGAGGAG, for which the “relative binding free energy” value amounted to 0.37 kcal/mol.

As for CTATTCACGTGATGGG, the “relative binding free energy” value came to 0.36 kcal/mol.

Regarding CGTCGCACGTGGGGGT, the “relative binding free energy” value is -0.34 kcal/mol.

On to ATGGACACGTGTACGG, for which the “relative binding free energy” value turned out to be 0.11 kcal/mol.

Take TTTATCACGTGTAGAT: the “relative binding free energy” value was determined as 0.37 kcal/mol.

Turning to GGGTACACGTGTTAAG, the “relative binding free energy” value was 0.13 kcal/mol.

In the case of TGGGGCACGTGTCGAT, the “relative binding free energy” value is -0.01 kcal/mol.

Regarding GTGAGCACGTGTTTGG, the “relative binding free energy” value is 0.08 kcal/mol.
